For six molecules, binding signal results are on record in PMC12136788.

The labels stand for the following.
B1: chr14:53039561:53039662:-|3pUTR|ENSG00000100523|unk|total|mutant (ssRNA)
RNA: GGGAGUUCUACAGUCCGACGAUCUCAAACUAUAUUUUUGUUACAGCAAACUACAUUCCAUUUGCCUUUAAAUGCUUGCAUUUCCGUUAUUGUACUGGCUACCUGUUUUUGUCUGCCCAGCAUCCUGUUUCCCCUCCUUUUGGACAACAGAGGAUUGAGCAUCA
B2: chr4:83462471:83462902:-|CDS|ENSG00000163322|control|control|control (ssRNA)
RNA: GGGAGUUCUACAGUCCGACGAUCUUCAAGAGAUCUCGGUUGUUAGAUACACAAGACAAACGAUCUAAAGCAGAUACUGGUAGUAGUAACCAAGAUAAAGCAUCCAAAAUGAGCAGCCCAGAAACAGAUGAAGAAAUUGAAAAGCAACAGAGGAUUGAGCAUCA
B3: chr12:56204332:56204433:-|3pUTR|ENSG00000181852|unk|total|mutant (ssRNA)
RNA: GGGAGUUCUACAGUCCGACGAUCUUUUGCCUUUCUCUCACCUUAAUUCCCUUUCUUCCUUACUUUGUUACCUACCCUUAUCUCCGUGCUAACUUCUCUUUCAGGAGGAUGUCUGGGAGCCGUGUGCACUUCACAGCUGCUUUCCAACAGAGGAUUGAGCAUCA
B4: chrX:119243474:119243703:+|3pUTR|ENSG00000101856|msi1|FALSE|unique (ssRNA)
RNA: GGGAGUUCUACAGUCCGACGAUCGGUAUUUCCCAAAACAGGUAAAAAUCUUAAAUGUGCACCAAGAGCAAAGGAUCAACUUUUAGUCAUGAUGUUCUGUAAAGACAACAAAUCCCUUUUUUUUUCUCAAUUGACUUAACUGCACAACAGAGGAUUGAGCAUCA
B5: ENSG00000103257:stop:overlap|stop_codon|ENSG00000103257|stop_codon|NA|stop_codon (ssRNA)
RNA: GGGAGUUCUACAGUCCGACGAUCGCAUCUUCUCCACGACCGUCCUGUGUCAGAAGCUCAUGCAGGUGGUCCCCCAGGAGACAUAGCCAGGAGGCCGAGUGGCUGCCGGAGGAGCAUGCGCAGAGGCCAGUUAAAGUAGAUCACCAACAGAGGAUUGAGCAUCA
B6: chr4:168927217:168927233:+|3pUTR|ENSG00000129116|msi1_unk|FALSE|overlapping (ssRNA)
RNA: GGGAGUUCUACAGUCCGACGAUCAACCACCCAAAUGACCAAGGCAUAUAUAGUAUUUGGAGGAAUCAGGGGUUUGGAAGGAGUAGGGAGGAGAAUGAAGGAAAAUGCAACCAGCAUGAUUAUAGUGUGUUCAUUUAGAUAAAACAACAGAGGAUUGAGCAUCA

The other results are listed elsewhere or left out.

In the assay the target is MSI1 full-length (mouse, UniProt Q61474 1-362). Nature of the assay: nsRBNS (natural sequence RNA bind-n-seq); RBNS binding buffer (assumed for nsRBNS): 25 mM Tris pH 7.5, 150 mM KCl, 3 mM MgCl2, 0.01% Triton X-100, 500 ug/ml BSA, 20 U/ml SUPERase-In, 4 C; UNK is unkempt and MSI1 is Musashi-1; names of the RNAs are library labels; protein concentration not given here; high values mean tight binding.
Chain of UniProt Q61474 (Q61474 whole entry): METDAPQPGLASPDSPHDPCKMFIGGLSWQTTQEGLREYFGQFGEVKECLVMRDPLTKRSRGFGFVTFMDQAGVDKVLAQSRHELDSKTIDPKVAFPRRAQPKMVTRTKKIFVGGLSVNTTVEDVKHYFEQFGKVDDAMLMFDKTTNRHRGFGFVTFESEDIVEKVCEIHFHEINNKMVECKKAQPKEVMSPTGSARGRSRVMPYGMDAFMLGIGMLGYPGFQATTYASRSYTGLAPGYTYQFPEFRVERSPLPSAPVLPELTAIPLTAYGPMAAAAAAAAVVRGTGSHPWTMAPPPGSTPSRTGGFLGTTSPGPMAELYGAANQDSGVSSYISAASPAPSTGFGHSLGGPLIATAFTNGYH
Turning to B1, the binding signal worked out at 0.508 enrichment R. The molecule B2 returned a binding signal of 1.88 enrichment R. The result for B3 reads 1 enrichment R. As for B4, the binding signal stood at 0.595 enrichment R. The molecule B5 gave a binding signal of 0.357 enrichment R. On to B6, for which the binding signal stood at 4.58 enrichment R.
